Laboratory results: article PMC4336329 (PLoS ONE, 2015)
Hit rate of the full screen: of about 310,000 compounds, about 14,000 (4.5%) showed an effect of 50% or more. The effect is printed as a negative number. The list shows a part of the results.

target: human ether-à-go-go-related gene (hERG) potassium channel (human, UniProt Q12809); test: primary screen, population patch clamp on CHO cells stably expressing hERG
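Further: peak tail current of the secondary pulse compared with the same well before compound.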

Sequence of human ether-à-go-go-related gene (hERG) potassium channel (Q12809 whole entry, looked up): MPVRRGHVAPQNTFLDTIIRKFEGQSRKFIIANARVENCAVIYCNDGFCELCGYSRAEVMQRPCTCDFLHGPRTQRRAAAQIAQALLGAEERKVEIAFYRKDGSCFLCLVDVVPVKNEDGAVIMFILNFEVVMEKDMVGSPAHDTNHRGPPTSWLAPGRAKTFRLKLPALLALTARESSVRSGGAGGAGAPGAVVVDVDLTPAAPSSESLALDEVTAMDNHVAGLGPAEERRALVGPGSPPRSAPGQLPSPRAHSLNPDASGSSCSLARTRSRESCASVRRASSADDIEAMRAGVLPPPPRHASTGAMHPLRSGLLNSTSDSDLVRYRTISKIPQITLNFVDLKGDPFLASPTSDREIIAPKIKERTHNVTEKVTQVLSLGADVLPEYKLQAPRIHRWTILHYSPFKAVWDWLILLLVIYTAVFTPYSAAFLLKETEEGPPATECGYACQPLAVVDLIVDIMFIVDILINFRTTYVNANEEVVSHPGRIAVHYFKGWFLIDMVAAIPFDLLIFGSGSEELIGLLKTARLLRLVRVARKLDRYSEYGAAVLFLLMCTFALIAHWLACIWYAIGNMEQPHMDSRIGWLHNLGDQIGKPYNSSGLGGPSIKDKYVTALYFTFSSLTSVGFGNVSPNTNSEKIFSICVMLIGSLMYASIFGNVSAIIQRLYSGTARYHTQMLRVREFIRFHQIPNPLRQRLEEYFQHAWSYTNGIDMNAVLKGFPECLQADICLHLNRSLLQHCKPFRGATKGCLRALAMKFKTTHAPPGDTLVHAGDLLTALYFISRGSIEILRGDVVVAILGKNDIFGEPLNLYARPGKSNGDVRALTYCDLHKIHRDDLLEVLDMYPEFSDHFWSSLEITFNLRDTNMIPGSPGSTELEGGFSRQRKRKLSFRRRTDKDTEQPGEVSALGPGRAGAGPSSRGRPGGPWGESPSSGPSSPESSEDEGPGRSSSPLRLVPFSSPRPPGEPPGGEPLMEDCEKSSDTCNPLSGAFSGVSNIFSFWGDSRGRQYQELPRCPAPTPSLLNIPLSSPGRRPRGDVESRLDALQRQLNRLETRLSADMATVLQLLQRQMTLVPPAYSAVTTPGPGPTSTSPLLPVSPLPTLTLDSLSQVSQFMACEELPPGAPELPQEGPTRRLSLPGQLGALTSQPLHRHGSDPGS

Going from `Cc1cccc(-n2c(Cc3cc(=O)[nH]c(=O)[nH]3)nnc2SCC(=O)NCc2ccco2)c1` to `Cc1ccc(CSc2nc3ccccc3c(=O)n2Cc2ccco2)cc1`, the “hERG current change (%, negative = inhibition) at 10uM” value rises from -1.03% to 8.42%.

First: COc1ccc(OC)c(C(=O)c2ccc(Cl)cc2)c1
Second: COc1ccc(-c2nnc(NC(=O)c3ccccc3[N+](=O)[O-])s2)c(OC)c1
The “hERG current change (%, negative = inhibition) at 10uM” value of the first is higher: -13.5% for the first, -15.1% for the second.

First: CCCCC1=CC2=CC(=O)C(C)(OC(=O)c3ccc(Cl)nc3)C(=O)C2=CO1 (centres unmarked)
Second: CC(=O)c1ccc(-c2nnc(CCC(=O)N(C)Cc3cccc4cnccc34)o2)s1
The “hERG current change (%, negative = inhibition) at 10uM” value of the first is higher: 7.18% for the first, -81.4% for the second.

Compared with `CN(Cc1cc([N+](=O)[O-])ccc1Cl)C(=O)C[n+]1ccccc1.[Cl-]`, `Cc1nn(CC(=O)NNC(=O)c2ccccc2F)c([N+](=O)[O-])c1Br` is lower in “hERG current change (%, negative = inhibition) at 10uM” value: 24% for the first, -6.91% for the second.

Compared with `Cc1noc(C)c1CSCC(=O)Nc1cc(C(F)(F)F)ccc1N1CCOCC1`, `CCOC(=O)N1CCN(C(=O)c2cc3c(-c4ccc(Cl)cc4)nn(C)c3s2)CC1` is higher in “hERG current change (%, negative = inhibition) at 10uM” value: -37.9% for the first, -34.1% for the second.

First: CSc1nc(C(=O)N2CCc3c([nH]c4ccccc34)C2c2ccccn2)cs1 (centres unmarked)
Second: CCn1c(SCc2nc3scc(-c4ccccc4)c3c(=O)[nH]2)nnc1-c1ccc(Cl)cc1
The “hERG current change (%, negative = inhibition) at 10uM” value of the first is lower: -4.85% for the first, -3.18% for the second.

Going from `COc1ccc(C(=O)CCC(=O)N2CCN(c3ccccc3)CC2)cc1` to `COc1ccc(N2CCN(Cc3cc(=O)oc4ccc(Cl)cc34)CC2)cc1`, the “hERG current change (%, negative = inhibition) at 10uM” value rises from -9.62% to 12.9%.

First: CC(C)Cn1c(=O)c(C(=O)Nc2ccccc2S(N)(=O)=O)c(O)c2ccccc21
Second: O=C(CN1C(=O)CSC1=O)NCc1ccccc1
The “hERG current change (%, negative = inhibition) at 10uM” value of the first is lower: -11.2% for the first, 2.82% for the second.

Going from `Cc1cc(C)c(C#N)c(Oc2ccccc2Br)n1` to `Cc1nn(-c2cc(C)c3ccccc3n2)c2c1C1C(C2)C1(C)C` (centres unmarked), the “hERG current change (%, negative = inhibition) at 10uM” value rises from 3.63% to 12.6%.

Compared with `CCOc1ccc(OCc2cccc(C(=O)N/N=C/c3cccnc3)c2)cc1`, `COc1cccc(C(=O)C2CCCN(Cc3cccc(-n4nc(C)cc4C)c3)C2)c1` (centres unmarked) is lower in “hERG current change (%, negative = inhibition) at 10uM” value: -17.1% for the first, -59.4% for the second.

Compared with `CCc1nc2c(sc3nc4c(cc32)COC(C)(C)C4)c(=O)n1Cc1ccco1`, `Fc1ccc(N2CCN(C(c3cccs3)c3nnnn3CCc3ccccc3)CC2)cc1` (centres unmarked) is higher in “hERG current change (%, negative = inhibition) at 10uM” value: -16% for the first, 3.96% for the second.

`COc1ccc(CCN2C(=NC(=O)CCC(=O)O)SC3CS(=O)(=O)CC32)cc1` (centres unmarked) was tested, and the “hERG current change (%, negative = inhibition) at 10uM” value was -4.44%.
